Publication PMC4336329 (PLoS ONE, 2015)
Out of some 310,000 compounds screened, about 14,000 (4.5%) showed an effect of 50% or more. Effects have a minus sign here. Some of the results follow.

Target: human ether-à-go-go-related gene (hERG) potassium channel (human, UniProt Q12809)
Test: primary screen, population patch clamp on CHO cells stably expressing hERG
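Further: peak tail current of the secondary pulse compared with the same well before compound.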

Chain of human ether-à-go-go-related gene (hERG) potassium channel (Q12809 whole entry, looked up): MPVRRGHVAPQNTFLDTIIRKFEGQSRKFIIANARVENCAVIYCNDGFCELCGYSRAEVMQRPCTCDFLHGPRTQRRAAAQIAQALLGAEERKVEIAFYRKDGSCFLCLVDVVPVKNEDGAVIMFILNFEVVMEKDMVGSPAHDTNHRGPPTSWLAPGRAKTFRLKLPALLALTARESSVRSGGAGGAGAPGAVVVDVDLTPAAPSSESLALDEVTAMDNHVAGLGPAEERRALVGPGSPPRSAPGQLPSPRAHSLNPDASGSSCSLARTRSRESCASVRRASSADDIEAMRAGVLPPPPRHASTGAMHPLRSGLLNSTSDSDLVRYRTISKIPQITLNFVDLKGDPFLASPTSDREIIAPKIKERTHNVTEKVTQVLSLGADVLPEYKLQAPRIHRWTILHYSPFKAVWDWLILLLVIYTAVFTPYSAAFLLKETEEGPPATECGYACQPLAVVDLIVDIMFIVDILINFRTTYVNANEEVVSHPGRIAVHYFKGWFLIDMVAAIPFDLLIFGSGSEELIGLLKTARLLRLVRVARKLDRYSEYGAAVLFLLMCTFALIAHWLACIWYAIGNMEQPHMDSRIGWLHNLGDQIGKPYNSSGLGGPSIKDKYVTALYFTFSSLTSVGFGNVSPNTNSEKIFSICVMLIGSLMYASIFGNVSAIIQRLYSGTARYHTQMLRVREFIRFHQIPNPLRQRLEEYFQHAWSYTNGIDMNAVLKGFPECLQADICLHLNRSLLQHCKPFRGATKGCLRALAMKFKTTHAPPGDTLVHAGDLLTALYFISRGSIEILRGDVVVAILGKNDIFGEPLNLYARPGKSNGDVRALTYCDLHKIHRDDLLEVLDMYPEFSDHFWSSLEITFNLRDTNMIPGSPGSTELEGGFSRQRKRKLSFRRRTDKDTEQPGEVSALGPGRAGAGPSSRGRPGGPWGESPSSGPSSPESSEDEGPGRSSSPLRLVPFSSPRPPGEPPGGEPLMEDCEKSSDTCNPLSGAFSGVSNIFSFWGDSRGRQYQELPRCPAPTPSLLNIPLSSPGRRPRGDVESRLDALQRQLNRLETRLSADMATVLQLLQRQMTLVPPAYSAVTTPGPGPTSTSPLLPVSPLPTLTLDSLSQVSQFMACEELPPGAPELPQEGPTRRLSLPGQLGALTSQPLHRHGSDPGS

| SMILES | hERG current change (%, negative = inhibition) at 10uM [%] |
| --- | --- |
| O=C(O)c1cc(O)ccc1NC(=O)C(c1ccccc1)c1ccccc1 | 7.66 |
| Cc1cc(NC(=O)c2n[nH]c(=O)c3ccccc23)ccc1Br | 4.09 |
| COC1C(C)=C(C)C(=O)N1Cc1ccc(F)cc1 (stereo not shown) | 14.9 |
| Cc1ccc(S(=O)(=O)c2ccc(-n3nc(C)cc3N)cc2)cc1 | -4.01 |
| Cc1ccc(NC(=S)N(CCN(C)C)Cc2cccs2)cc1 | -19.3 |
| COc1ccccc1-n1nc(C(=O)Nc2ccc3c(c2)OCO3)c2ccccc2c1=O | -1.71 |
| O=C(CCNc1n[nH]c(=O)[nH]c1=O)N/N=C/c1ccccc1Br | 14.5 |
| CCC(C)c1ccccc1NC(=O)COC(=O)c1ccc2[nH]c3c(c2c1)CCCC3 (stereo not shown) | -7.64 |
| Cc1ccc(-n2nnc3c(SCC(=O)NCc4ccco4)ncnc32)cc1 | 8 |
| O=C(Nc1ccc(F)cc1)c1ccc2c(=O)n3c(nc2c1)CCCCC3 | -51.8 |
| Cc1ccc(C(O)c2cccnc2)o1 (stereo not shown) | 6.69 |
| COc1ccc(C2Nc3ccccc3C(=O)N2c2ccccc2)cc1COc1ccccn1 (stereo not shown) | 0.397 |
| CC(NC(=O)COC(=O)c1ccc2c(c1)S(=O)(=O)N=C1CCCCCN12)C12CC3CC(CC(C3)C1)C2 (stereo not shown) | 6.54 |
| COc1ccc(-c2nc3ccc(N4CCN(C)CC4)cc3c(=O)[nH]2)cc1 | 8.45 |
| COc1cccc(NC(=O)CSc2nc3scc(C)c3c(=O)[nH]2)c1 | 10.5 |
| CC1CCCCN1Cc1ccc(N)cc1 (stereo not shown) | 12.7 |
| Oc1ccccc1Oc1ncc(Br)c(Cl)n1 | 13.6 |
| Cc1ccn2c(=O)nc(SCC(=O)NCc3ccc(F)cc3)nc2c1 | -0.946 |
| CC(=O)N1CCC(C(=O)OCc2ccccc2F)(c2ccccc2)CC1 | 2.43 |
| N#C/C(=C\c1c(N2CCOCC2)nc2ccccn2c1=O)S(=O)(=O)c1ccccc1 | -63.2 |
| CC1CN(Cc2nc3c(c(=O)n(C)c(=O)n3C)n2Cc2cccc(Cl)c2)CC(C)O1 (stereo not shown) | -14.2 |
| O=C(CC1C(=O)NCCN1C/C=C/c1ccccc1)NCCCC1CCCC1 (stereo not shown) | -28.1 |
| COc1ccc(O)c(/C=C2/SC(=S)N(Cc3ccccc3)C2=O)c1 | 19.7 |
| O=C(NCC1CCCO1)c1ccc(Br)c(S(=O)(=O)N2CCOCC2)c1 (stereo not shown) | -16 |
| O=C(CN1CCN(S(=O)(=O)c2ccc(Br)cc2)CC1)N/N=C/c1ccccc1C(=O)O | 14.2 |
| CN(C)c1cc[n+](CC(=O)c2ccc(Br)cc2)cc1.[Cl-] | 5.59 |
| Cc1ccc(C(=O)N/C(=C\c2cn(C)c3ccccc23)C(=O)OCCN(C)C)cc1 | -26.5 |
| CCc1nc(SCC(=O)N2CCc3cc(OC)c(OC)cc3C2)c(C#N)cc1C | -27.2 |

| SMILES | hERG current change (%, negative = inhibition) at 10uM [%] |
| --- | --- |
| CCCSc1cc(=O)n(-c2ccccc2)nc1C(=O)OCC | -8.04 |
| COCCn1c(N)c(Sc2ccc([N+](=O)[O-])cc2)c(=O)[nH]c1=O | -46.5 |
| CCN(CC)S(=O)(=O)c1cccc(C(=O)N[C@H](C(=O)Nc2nc3ccccc3s2)C(C)C)c1 | -0.123 |
| CC(C)(C)OC(=O)Nc1ncnc2c1ncn2C1OC(CO)C2OC(C)(C)OC21 (stereo not shown) | 12.9 |
| Cc1nc(CCNC(=O)CC2C(=O)NCCN2Cc2ccoc2)nc2c1CCCC2 (stereo not shown) | -36.7 |
| O=c1c2ccsc2ncn1Cc1cccc(C(F)(F)F)c1 | -15.9 |
| Cn1cc(CN2CCC(n3nccc3NC(=O)CCOc3ccccc3)CC2)cn1 | 17.1 |
| O=C(Cc1c(F)cccc1Cl)NNC(=O)c1ccccc1Cl | -0.796 |
| C/C(=N/NC(=O)Cc1cccc2ccccc12)c1cccs1 | 6.33 |
| C=CCN1CCN(C(=O)CSc2ccccc2)CC1 | 10.5 |
| O=C(CN(Cc1ccccc1)C(=O)c1ccco1)NCc1ccc(F)cc1 | -31.6 |
| O=C(c1cccc(NS(=O)(=O)c2ccc(F)c(F)c2)c1)N1CCN(Cc2ccccc2)CC1 | -26.8 |
| COc1ccc(CNC(=O)c2ccc(-c3ccccc3)cc2)cc1 | 16 |
| COc1ccc(C(=O)Nn2c(C)nc3ccccc3c2=O)cc1Br | -7.54 |
| CS(=O)CCC(NS(=O)(=O)c1ccccc1)C(=O)O (stereo not shown) | 20.4 |
| Cc1cccc(C)c1NS(=O)(=O)c1cc2c3c(c1)CC(=O)N3CCC2 | -12.2 |
| COc1ccccc1C1C(C(=O)c2cc3ccccc3o2)=C(O)C(=O)N1c1cc(C)on1 (stereo not shown) | 16.9 |
| O=C1COc2ccc(S(=O)(=O)NCCc3ccccc3)cc2N1 | 10.7 |
| Cc1cccc(CSc2nnc(-c3ccccn3)n2N)c1 | 2.88 |
| COc1ccc2c(c1)[C@H]1[C@H](CO2)[C@H](c2ccccc2)[C@]2(C)C(=O)Nc3cc(Cl)ccc3C(=O)N12 | -15 |
| CCCOc1ccc(Cn2ccnc2)cc1[N+](=O)[O-] | -52.3 |
| COC(=O)c1ccc(CN2C(=O)NC3(CCCCC3)C2=O)cc1 | 11.2 |
| O=c1c2c3c(sc2nc(N2CCNCC2)n1CCc1ccccc1)CCCCC3 | -0.343 |
| COc1ccc(C2/C=C\CNCC(=O)N2Cc2ccc(F)cc2)cc1 (stereo not shown) | -0.0236 |
| Cc1cc(C)cc(NC(=O)N2CCN(C/C=C/c3ccccc3)CC2)c1 | -69 |
| CC(=O)N(CCCNC(=O)c1ccccc1)C(=O)c1ccccc1 | 7.46 |
| COC(=O)CSc1ccc2nnc(-c3ccc(OC)c(OC)c3)n2n1 | -26.4 |
